Reference: paper PMC7819943, “Rice protein-binding microarrays: a tool to detect cis-acting elements near promoter regions in rice”
The other results are listed elsewhere or left out.

Target: T1, OsWOX13 (Oryza sativa, UniProt Q5QMM3 1-267)
T1 sequence: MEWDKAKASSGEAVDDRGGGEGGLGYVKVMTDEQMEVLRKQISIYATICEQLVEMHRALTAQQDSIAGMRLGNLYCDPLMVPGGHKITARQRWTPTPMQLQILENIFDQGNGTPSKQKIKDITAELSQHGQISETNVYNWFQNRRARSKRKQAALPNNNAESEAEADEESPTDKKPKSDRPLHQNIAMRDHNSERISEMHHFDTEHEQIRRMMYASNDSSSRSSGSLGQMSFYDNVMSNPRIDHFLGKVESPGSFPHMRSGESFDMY
Test: protein-binding microarray (RPBM); PBS, 2% BSA, 51.3 ng/ul salmon testes DNA, 50 uM zinc acetate, 200 nM TF, 25 C, 1 h; high values mean tight binding
Details: protein: recombinant; tags: N-terminal polyhistidine and DsRed monomer fusion (pET32a); label: CyDye5-dUTP incorporated in the synthesized complementary strand; 3' TTTTT single-stranded linker to array surface; dsDNA, one strand shown
In short: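 Polyhistidine-tagged DsRed fusions of transcription factors, joined at the N-terminus, were expressed in E. coli BL21-CodonPlus and isolated on Ni–NTA. They were incubated at 200 nM for 1 h at 25 °C on a custom Agilent array, double-stranded and BSA-blocked, in PBS with 2% BSA, salmon testes DNA and 50 µM zinc acetate. The binding signal is per-feature fluorescence intensity (arbitrary units) read on an Axon 4000B scanner after washing.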

In order of falling binding signal:
1. TAACTAATTATGTACTAACAAATTAGCTAGTCTACCATGCCGGAGTCACCTAGTGCAG  56600 fluorescence intensity (a.u.)
2. GCCTAATTAATTCGTCATTAGTACATGTGGGTTACTGTAGCGGAGTCACCTAGTGCAG  37400 fluorescence intensity (a.u.)
3. ATAATTTATATTCAATTAATCATGCGTTAATAGTTTATCTCGGAGTCACCTAGTGCAG  34600 fluorescence intensity (a.u.)
4. TTGTAATTATACACAATTGTAACTACGAGATTCCAGTCAACGGAGTCACCTAGTGCAG  31400 fluorescence intensity (a.u.)
5. CTAAATTTTCAATTATATGTCTAGAAGATTTGATCCAATGCGGAGTCACCTAGTGCAG  29300 fluorescence intensity (a.u.)
6. TTTATTTATAAATTAATTTTCATTCGTAAATATGTCACGACGGAGTCACCTAGTGCAG  29300 fluorescence intensity (a.u.)
7. ACTAGATTACTTGTGATGGAAACAGCTCATCTGAGCTCAACGGAGTCACCTAGTGCAG  28700 fluorescence intensity (a.u.)
8. TAAGCCTAATTAATATGTCATTAGCGTCAAATCATTGATCCGGAGTCACCTAGTGCAG  25900 fluorescence intensity (a.u.)
9. ATTGATGATGACGATTTTGAGGAATCTGATGATGATTCTGCGGAGTCACCTAGTGCAG  24500 fluorescence intensity (a.u.)
10. ATGATTAAAATTGTTTTGAACCGTTGCACGCACCAGCATTCGGAGTCACCTAGTGCAG  23400 fluorescence intensity (a.u.)
11. CAGGGAAATTAAATTAACTAGCTCGAAGAAATTCAGGGAGCGGAGTCACCTAGTGCAG  17800 fluorescence intensity (a.u.)
12. AATAATGGTGTAATTATGCTCAAAAGATTCATCTCGCAATCGGAGTCACCTAGTGCAG  17200 fluorescence intensity (a.u.)
13. AGCTAGACAGCAATCATTCCACACGTTCTCCTCTCCTGCTCGGAGTCACCTAGTGCAG  15500 fluorescence intensity (a.u.)
14. ATGCTTAATTTGGGCTCATTTATAAGGGCCGAAATGGAGGCGGAGTCACCTAGTGCAG  13600 fluorescence intensity (a.u.)
15. TAGTTCATAATTATAGAGTTAGTGGCACATGATGGGAAGCCGGAGTCACCTAGTGCAG  12300 fluorescence intensity (a.u.)
16. TAATAATAATTAATTTGTTTCCAAACTTATTAAACTAAAACGGAGTCACCTAGTGCAG  11200 fluorescence intensity (a.u.)
17. CAAAACAAATTACAGATTCCGCCTGTAAACTGCGAGACGACGGAGTCACCTAGTGCAG  11100 fluorescence intensity (a.u.)
18. CCCTTGTAATTATTTGATATTAGATCATTCCCTAATATTCCGGAGTCACCTAGTGCAG  10500 fluorescence intensity (a.u.)
19. AACTCATGATTACGTTTAAAATGGGACGTAGTAGTATTCTCGGAGTCACCTAGTGCAG  9900 fluorescence intensity (a.u.)
20. CTGAAATTTCAAGTTATTTAATCTGACATGCATGGTTAAGCGGAGTCACCTAGTGCAG  9870 fluorescence intensity (a.u.)
21. TTGACTATAGATGATTTGAAGTCAGTGGTTGACTATACTACGGAGTCACCTAGTGCAG  8700 fluorescence intensity (a.u.)
22. TTAGTGACGAGTTTTAAACTTTTATGATTTCTTTTGGACGCGGAGTCACCTAGTGCAG  7840 fluorescence intensity (a.u.)
23. AATGTTGTCACATATAATTATTATGAAGTTTGATAGCTGTCGGAGTCACCTAGTGCAG  7330 fluorescence intensity (a.u.)
24. ATAAATTATTAGTACTATTCCATATACTACATTTTCTTCTCGGAGTCACCTAGTGCAG  7220 fluorescence intensity (a.u.)
25. CAATAGACTAGATTAATAGTAAACCACTTCAATGGTATGTCGGAGTCACCTAGTGCAG  6760 fluorescence intensity (a.u.)
26. GGCTATTTCTGTACTAGTGATTGGTCACTGCTCACACTGACGGAGTCACCTAGTGCAG  6240 fluorescence intensity (a.u.)
27. CTATCATAATTCATAAATCATCGTATACGCGCTTGTCCAGCGGAGTCACCTAGTGCAG  6100 fluorescence intensity (a.u.)
28. CATTTCTAATTATATAATCGTTAGAACATACGAGTATGTTCGGAGTCACCTAGTGCAG  6090 fluorescence intensity (a.u.)
29. CCTGCCCATCACTTGTGGTGATAGGCTGTCAGGCTGATGGCGGAGTCACCTAGTGCAG  6050 fluorescence intensity (a.u.)
30. TATAAATTTAACTTTAAGAATTAAGCCTGTAGTGAAGTTACGGAGTCACCTAGTGCAG  5810 fluorescence intensity (a.u.)
31. GCGGCGGTGGGGATGGGGATAGGGCGGCGGCGGCGGATGGCGGAGTCACCTAGTGCAG  5760 fluorescence intensity (a.u.)
32. TGTTAACTTGATGATATAGTACTTATACTCCGAAGTCTATCGGAGTCACCTAGTGCAG  5410 fluorescence intensity (a.u.)
33. AATAATTTCTCCGCGGGAAGGTGGGATTTCTACCCGATTCCGGAGTCACCTAGTGCAG  5220 fluorescence intensity (a.u.)
34. AAACCAAATTTAATCACCAAAGGTCTAATGTTTGGGAACTCGGAGTCACCTAGTGCAG  5220 fluorescence intensity (a.u.)
35. CGCCAACCACCGGCGCTGATTGGAGAGAGATCGGCGATTACGGAGTCACCTAGTGCAG  5150 fluorescence intensity (a.u.)
36. AATGGATAATGGGATGACATATAATGGTTAACTTACACACCGGAGTCACCTAGTGCAG  4470 fluorescence intensity (a.u.)
37. GGAAATTTAACTATTTGCCACTATTAGGTTCGGTAATTATCGGAGTCACCTAGTGCAG  4440 fluorescence intensity (a.u.)
38. ATCAACTTAGAAATTGATGAGACACTTCCCTCAATCTCAGCGGAGTCACCTAGTGCAG  4370 fluorescence intensity (a.u.)
39. GAGGAAATTGTAGTTTGGAATTGAACAAAAGAACATACCCCGGAGTCACCTAGTGCAG  4350 fluorescence intensity (a.u.)
40. GTGCAGTGATTTTACCTTTAAACTCTTTCTGCCCACTTCCCGGAGTCACCTAGTGCAG  3920 fluorescence intensity (a.u.)
41. GTATCAAGTGCCAATTTGTCAAATTTGAACGCAGCTAGAGCGGAGTCACCTAGTGCAG  3580 fluorescence intensity (a.u.)
42. TGTAAATTACTTTTAGGCTTCACTGAATTTACTTTTATATCGGAGTCACCTAGTGCAG  3550 fluorescence intensity (a.u.)
